# In paper doi:10.1101/2025.08.08.669391:
# Certain results were filed several times, with different values. This is not the full list of results. The source may hold further records. Some entries list several cross-links; each record is another pair of residues.
# Target: SPTAN1 (UniProt Q13813)
# Assay: cross-linking mass spectrometry
# Conditions: DSSO, not determined
# Chain of SPTBN1 (Q01082 whole entry): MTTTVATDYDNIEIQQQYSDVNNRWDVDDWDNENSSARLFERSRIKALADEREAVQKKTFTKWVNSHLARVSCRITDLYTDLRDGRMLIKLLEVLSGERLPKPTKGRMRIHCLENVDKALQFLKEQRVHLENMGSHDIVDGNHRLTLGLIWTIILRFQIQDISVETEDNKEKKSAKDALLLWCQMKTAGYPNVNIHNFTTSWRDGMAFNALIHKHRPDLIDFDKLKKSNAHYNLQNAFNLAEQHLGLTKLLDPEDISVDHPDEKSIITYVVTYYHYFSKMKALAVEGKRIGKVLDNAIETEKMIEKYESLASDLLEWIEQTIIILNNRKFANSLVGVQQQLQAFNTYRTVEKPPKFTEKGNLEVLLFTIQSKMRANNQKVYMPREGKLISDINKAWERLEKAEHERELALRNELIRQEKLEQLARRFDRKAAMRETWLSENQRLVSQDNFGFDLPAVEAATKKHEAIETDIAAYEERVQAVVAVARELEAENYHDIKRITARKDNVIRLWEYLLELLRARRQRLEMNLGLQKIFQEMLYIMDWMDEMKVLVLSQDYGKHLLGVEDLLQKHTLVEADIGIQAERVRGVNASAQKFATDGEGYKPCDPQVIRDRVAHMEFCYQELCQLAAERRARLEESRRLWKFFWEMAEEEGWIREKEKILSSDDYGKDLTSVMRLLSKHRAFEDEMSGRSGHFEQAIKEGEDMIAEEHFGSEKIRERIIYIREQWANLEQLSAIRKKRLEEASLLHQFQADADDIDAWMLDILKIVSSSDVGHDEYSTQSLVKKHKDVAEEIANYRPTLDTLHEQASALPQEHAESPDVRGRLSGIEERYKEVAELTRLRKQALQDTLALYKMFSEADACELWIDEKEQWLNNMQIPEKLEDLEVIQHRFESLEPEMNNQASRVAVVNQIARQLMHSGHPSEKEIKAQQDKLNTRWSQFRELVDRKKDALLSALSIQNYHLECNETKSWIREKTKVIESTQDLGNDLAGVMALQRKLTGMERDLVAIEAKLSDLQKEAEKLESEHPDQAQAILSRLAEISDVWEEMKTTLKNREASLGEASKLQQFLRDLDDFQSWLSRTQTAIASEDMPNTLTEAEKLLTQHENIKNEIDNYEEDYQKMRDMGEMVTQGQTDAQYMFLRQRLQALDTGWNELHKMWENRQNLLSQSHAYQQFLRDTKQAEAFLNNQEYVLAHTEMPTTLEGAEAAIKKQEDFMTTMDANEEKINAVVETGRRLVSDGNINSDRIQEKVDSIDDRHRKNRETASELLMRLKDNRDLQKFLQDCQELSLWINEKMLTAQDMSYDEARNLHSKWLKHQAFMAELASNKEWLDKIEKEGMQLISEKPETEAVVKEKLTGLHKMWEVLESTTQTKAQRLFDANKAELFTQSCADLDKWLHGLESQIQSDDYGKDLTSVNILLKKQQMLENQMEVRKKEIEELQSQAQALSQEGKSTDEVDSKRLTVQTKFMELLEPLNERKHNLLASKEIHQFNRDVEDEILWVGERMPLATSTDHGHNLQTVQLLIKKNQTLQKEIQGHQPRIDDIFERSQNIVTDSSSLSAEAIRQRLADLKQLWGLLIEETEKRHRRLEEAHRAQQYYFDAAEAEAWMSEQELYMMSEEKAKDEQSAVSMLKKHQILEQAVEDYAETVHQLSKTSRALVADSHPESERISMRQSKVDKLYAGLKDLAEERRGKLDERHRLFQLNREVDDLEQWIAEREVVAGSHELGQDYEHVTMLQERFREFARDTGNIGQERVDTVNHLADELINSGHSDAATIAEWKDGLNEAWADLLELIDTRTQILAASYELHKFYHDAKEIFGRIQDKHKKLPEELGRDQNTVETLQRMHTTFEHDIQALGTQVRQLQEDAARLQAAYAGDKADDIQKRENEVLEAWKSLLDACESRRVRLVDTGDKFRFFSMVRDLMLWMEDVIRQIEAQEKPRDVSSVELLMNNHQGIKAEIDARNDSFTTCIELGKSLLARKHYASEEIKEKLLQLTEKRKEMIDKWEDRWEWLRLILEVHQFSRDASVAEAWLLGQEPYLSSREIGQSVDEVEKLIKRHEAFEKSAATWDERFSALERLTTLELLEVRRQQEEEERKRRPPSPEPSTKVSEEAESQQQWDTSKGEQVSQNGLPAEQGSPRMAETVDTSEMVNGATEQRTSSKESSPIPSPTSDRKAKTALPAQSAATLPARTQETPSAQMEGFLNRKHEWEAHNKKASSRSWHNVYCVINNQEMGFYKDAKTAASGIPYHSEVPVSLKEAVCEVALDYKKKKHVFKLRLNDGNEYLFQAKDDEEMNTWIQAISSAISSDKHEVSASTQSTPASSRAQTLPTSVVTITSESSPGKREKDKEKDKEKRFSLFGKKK
substance,measurement,value
"SPTBN1, Q01082",cross-linked residues,K997 - K1646 and K1249 - K1369 and K2054 - K441
